# Some of the results follow.
# B1: RBMC1 (Vibrio cholerae) (protein)
# chain: QQSQRVVTADNLMYLRSGFAIDAIGTTVNNLVGGPVQGTNGGVLRAPIALDQLQSVEVTSGLYNWGGYHIVAIKFTMKDGSSVLLGSTHYASNKKVETYTVPQGKRIKQINVWTGGWLVEGFQFVY
# Key:
# Experiment in all cases: glycan array binding signal (z-score within array); higher = stronger binding
# Conditions in all cases: glycan notation: IUPAC condensed, linker removed
# [1] = molecular target: Gal(b1-4)GlcNAc(b1-3)Gal(b1-4)GlcNAc(b1-2)[Gal(b1-4)GlcNAc(b1-3)Gal(b1-4)GlcNAc(b1-6)]Man(a1-6)[Gal(b1-4)GlcNAc(b1-3)Gal(b1-4)GlcNAc(b1-2)Man(a1-3)]Man(b1-4)GlcNAc(b1-4)GlcNAc
# Method in brief: (§1)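 The binding signal is a Z-score computed within each array and averaged over linkers. Arrays of the same protein sequence at different concentrations or buffers were also averaged together. Data originate from 3228 arrays in the Consortium for Functional Glycomics database, kept only where the protein sequence was available.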
# [2] = molecular target: Gal(b1-4)GlcNAc(b1-3)Gal(b1-4)GlcNAc(b1-2)[Gal(b1-4)GlcNAc(b1-3)Gal(b1-4)GlcNAc(b1-6)]Man(a1-6)[Gal(b1-4)GlcNAc(b1-3)Gal(b1-4)GlcNAc(b1-2)Man(a1-3)]Man(b1-4)GlcNAc(b1-4)[Fuc(a1-6)]GlcNAc
# Method in brief: as §1
# [3] = molecular target: Gal(b1-4)GlcNAc(b1-3)Gal(b1-4)GlcNAc(b1-3)Gal(b1-4)GlcNAc
# Method in brief: as §1
# [4] = molecular target: Gal(b1-4)GlcNAc(b1-3)Gal(b1-4)GlcNAc(b1-3)Gal(b1-4)GlcNAc(b1-2)Man(a1-3)[Gal(b1-4)GlcNAc(b1-3)Gal(b1-4)GlcNAc(b1-3)Gal(b1-4)GlcNAc(b1-2)Man(a1-6)]Man(b1-4)GlcNAc(b1-4)GlcNAc
# Method in brief: as §1
# [5] = molecular target: Gal(b1-4)GlcNAc(b1-3)Gal(b1-4)GlcNAc(b1-3)Gal(b1-4)GlcNAc(b1-2)Man(a1-3)[Gal(b1-4)GlcNAc(b1-3)Gal(b1-4)GlcNAc(b1-3)Gal(b1-4)GlcNAc(b1-2)Man(a1-6)]Man(b1-4)GlcNAc(b1-4)[Fuc(a1-6)]GlcNAc
# Method in brief: as §1
# [6] = molecular target: Gal(b1-4)GlcNAc(b1-3)Gal(b1-4)GlcNAc(b1-3)Gal(b1-4)GlcNAc(b1-2)[Gal(b1-4)GlcNAc(b1-3)Gal(b1-4)GlcNAc(b1-3)Gal(b1-4)GlcNAc(b1-6)]Man(a1-6)[Gal(b1-4)GlcNAc(b1-3)Gal(b1-4)GlcNAc(b1-3)Gal(b1-4)GlcNAc(b1-2)Man(a1-3)]Man(b1-4)GlcNAc(b1-4)[Fuc(a1-6)]GlcNAc
# Method in brief: as §1
# [7] = molecular target: Gal(b1-4)GlcNAc(b1-3)Gal(b1-4)GlcNAc(b1-3)Gal(b1-4)GlcNAc(b1-3)Gal(b1-4)GlcNAc(b1-2)Man(a1-3)[Gal(b1-4)GlcNAc(b1-3)Gal(b1-4)GlcNAc(b1-3)Gal(b1-4)GlcNAc(b1-3)Gal(b1-4)GlcNAc(b1-2)Man(a1-6)]Man(b1-4)GlcNAc(b1-4)GlcNAc
# Method in brief: as §1
# [8] = molecular target: Gal(b1-4)GlcNAc(b1-3)Gal(b1-4)GlcNAc(b1-3)Gal(b1-4)GlcNAc(b1-3)Gal(b1-4)GlcNAc(b1-2)Man(a1-3)[Gal(b1-4)GlcNAc(b1-3)Gal(b1-4)GlcNAc(b1-3)Gal(b1-4)GlcNAc(b1-3)Gal(b1-4)GlcNAc(b1-2)Man(a1-6)]Man(b1-4)GlcNAc(b1-4)[Fuc(a1-6)]GlcNAc
# Method in brief: as §1
# [9] = molecular target: Gal(b1-4)GlcNAc(b1-3)Gal(b1-4)GlcNAc(b1-3)Gal(b1-4)GlcNAc(b1-3)Gal(b1-4)GlcNAc(b1-2)[Gal(b1-4)GlcNAc(b1-3)Gal(b1-4)GlcNAc(b1-3)Gal(b1-4)GlcNAc(b1-3)Gal(b1-4)GlcNAc(b1-6)]Man(a1-6)[Gal(b1-4)GlcNAc(b1-3)Gal(b1-4)GlcNAc(b1-3)Gal(b1-4)GlcNAc(b1-3)Gal(b1-4)GlcNAc(b1-2)Man(a1-3)]Man(b1-4)GlcNAc(b1-4)[Fuc(a1-6)]GlcNAc
# Method in brief: as §1
# [10] = molecular target: Gal(b1-4)GlcNAc(b1-3)Gal(b1-4)GlcNAc(b1-3)Gal(b1-4)GlcNAc(b1-3)Gal(b1-4)GlcNAc(b1-3)Gal(b1-4)GlcNAc(b1-2)Man(a1-3)[Gal(b1-4)GlcNAc(b1-3)Gal(b1-4)GlcNAc(b1-3)Gal(b1-4)GlcNAc(b1-3)Gal(b1-4)GlcNAc(b1-3)Gal(b1-4)GlcNAc(b1-2)Man(a1-6)]Man(b1-4)GlcNAc(b1-4)GlcNAc
# Method in brief: as §1
# [11] = molecular target: Gal(b1-4)GlcNAc(b1-3)Gal(b1-4)GlcNAc(b1-3)Gal(b1-4)GlcNAc(b1-3)Gal(b1-4)GlcNAc(b1-3)Gal(b1-4)GlcNAc(b1-2)Man(a1-3)[Gal(b1-4)GlcNAc(b1-3)Gal(b1-4)GlcNAc(b1-3)Gal(b1-4)GlcNAc(b1-3)Gal(b1-4)GlcNAc(b1-3)Gal(b1-4)GlcNAc(b1-2)Man(a1-6)]Man(b1-4)GlcNAc(b1-4)[Fuc(a1-6)]GlcNAc
# Method in brief: as §1
# [12] = molecular target: Gal(b1-4)GlcNAc(b1-3)Gal(b1-4)GlcNAc(b1-3)Gal(b1-4)GlcNAc(b1-3)Gal(b1-4)GlcNAc(b1-3)Gal(b1-4)GlcNAc(b1-2)[Gal(b1-4)GlcNAc(b1-3)Gal(b1-4)GlcNAc(b1-3)Gal(b1-4)GlcNAc(b1-3)Gal(b1-4)GlcNAc(b1-3)Gal(b1-4)GlcNAc(b1-6)]Man(a1-6)[Gal(b1-4)GlcNAc(b1-3)Gal(b1-4)GlcNAc(b1-3)Gal(b1-4)GlcNAc(b1-3)Gal(b1-4)GlcNAc(b1-3)Gal(b1-4)GlcNAc(b1-2)Man(a1-3)]Man(b1-4)GlcNAc(b1-4)[Fuc(a1-6)]GlcNAc
# Method in brief: as §1
# [13] = molecular target: Gal(b1-4)GlcNAc(b1-3)Gal(b1-4)GlcNAc(b1-3)Gal(b1-4)GlcNAc(b1-3)Gal(b1-4)GlcNAc(b1-3)Gal(b1-4)GlcNAc(b1-3)Gal(b1-4)GlcNAc(b1-2)Man(a1-3)[Gal(b1-4)GlcNAc(b1-3)Gal(b1-4)GlcNAc(b1-3)Gal(b1-4)GlcNAc(b1-3)Gal(b1-4)GlcNAc(b1-3)Gal(b1-4)GlcNAc(b1-3)Gal(b1-4)GlcNAc(b1-2)Man(a1-6)]Man(b1-4)GlcNAc(b1-4)GlcNAc
# Method in brief: as §1
# [14] = molecular target: Gal(b1-4)GlcNAc(b1-3)Gal(b1-4)GlcNAc(b1-3)GalNAc
# Method in brief: as §1
# [15] = molecular target: Gal(b1-4)GlcNAc(b1-3)Gal(b1-4)GlcNAc(b1-3)[Gal(b1-4)GlcNAc(b1-3)Gal(b1-4)GlcNAc(b1-6)]GalNAc
# Method in brief: as §1
# [16] = molecular target: Gal(b1-4)GlcNAc(b1-3)Gal(b1-4)GlcNAc(b1-6)[Gal(b1-3)]GalNAc
# Method in brief: as §1
# [17] = molecular target: Gal(b1-4)GlcNAc(b1-3)Gal(b1-4)[Fuc(a1-3)]GlcNAc(b1-3)Gal(b1-4)[Fuc(a1-3)]GlcNAc
# Method in brief: as §1
# [18] = molecular target: Gal(b1-4)GlcNAc(b1-3)GalNAc
# Method in brief: as §1
# [19] = molecular target: Gal(b1-4)GlcNAc(b1-3)[Fuc(a1-3)GlcNAc(b1-6)]Gal(b1-4)Glc
# Method in brief: as §1
# [20] = molecular target: Gal(b1-4)GlcNAc(b1-3)[Gal(b1-4)GlcNAc(b1-6)]Gal(b1-4)GlcNAc
# Method in brief: as §1
# [21] = molecular target: Gal(b1-4)GlcNAc(b1-3)[GlcNAc(b1-6)]Gal(b1-4)GlcNAc
# Method in brief: as §1
# [22] = molecular target: Gal(b1-4)GlcNAc(b1-6)Gal(b1-4)GlcNAc
# Method in brief: as §1
# [23] = molecular target: Gal(b1-4)GlcNAc(b1-6)GalNAc
# Method in brief: as §1
# [24] = molecular target: Gal(b1-4)GlcNAc(b1-6)[Gal(b1-3)]GalNAc
# Method in brief: as §1
# [25] = molecular target: Gal(b1-4)GlcNAc(b1-6)[Gal(b1-4)GlcNAc(b1-3)]GalNAc
# Method in brief: as §1
# Gal(b1-4)GlcNAc6P = molecular target: Gal(b1-4)GlcNAc6P
# Method in brief: as §1
# Gal(b1-6)Gal = molecular target: Gal(b1-6)Gal
# Method in brief: as §1
# Gal3S(b1-3)GalNAc = molecular target: Gal3S(b1-3)GalNAc
# Method in brief: as §1
# Gal3S(b1-3)GlcNAc = molecular target: Gal3S(b1-3)GlcNAc
# Method in brief: as §1
# [26] = molecular target: Gal3S(b1-3)[Fuc(a1-4)]GlcNAc
# Method in brief: as §1
# Gal3S(b1-4)Glc = molecular target: Gal3S(b1-4)Glc
# Method in brief: as §1
# Gal3S(b1-4)Glc6S = molecular target: Gal3S(b1-4)Glc6S
# Method in brief: as §1
# Gal3S(b1-4)GlcNAc = molecular target: Gal3S(b1-4)GlcNAc
# Method in brief: as §1
# [27] = molecular target: Gal3S(b1-4)[Fuc(a1-3)]Glc6S
# Method in brief: as §1
# [28] = molecular target: Gal3S(b1-4)[Fuc(a1-3)]GlcNAc
# Method in brief: as §1
# [29] = molecular target: Gal3S(b1-4)[Fuc(a1-3)]GlcNAc6S
# Method in brief: as §1
# Gal3S4S(b1-4)GlcNAc = molecular target: Gal3S4S(b1-4)GlcNAc
# Method in brief: as §1
# Gal3S6S(b1-4)GlcNAc = molecular target: Gal3S6S(b1-4)GlcNAc
# Method in brief: as §1
# Gal3S6S(b1-4)GlcNAc6S = molecular target: Gal3S6S(b1-4)GlcNAc6S
# Method in brief: as §1
# Gal4S(b1-4)GlcNAc = molecular target: Gal4S(b1-4)GlcNAc
# Method in brief: as §1
# Gal4S6S(b1-4)GlcNAc = molecular target: Gal4S6S(b1-4)GlcNAc
# Method in brief: as §1
# Gal6P(b1-4)GlcNAc = molecular target: Gal6P(b1-4)GlcNAc
# Method in brief: as §1
# Gal6S(b1-3)GlcNAc = molecular target: Gal6S(b1-3)GlcNAc
# Method in brief: as §1
# Gal6S(b1-3)GlcNAc6S = molecular target: Gal6S(b1-3)GlcNAc6S
# Method in brief: as §1
# Gal6S(b1-4)Glc = molecular target: Gal6S(b1-4)Glc
# Method in brief: as §1
binder,measurement,setting,value
B1,glycan array binding signal (z-score),[1],0.242
same,glycan array binding signal (z-score),[2],-0.38
same,glycan array binding signal (z-score),[3],-0.299
same,glycan array binding signal (z-score),[4],0.806
same,glycan array binding signal (z-score),[5],2.36
same,glycan array binding signal (z-score),[6],-0.239
same,glycan array binding signal (z-score),[7],1.31
same,glycan array binding signal (z-score),[8],1.71
same,glycan array binding signal (z-score),[9],-0.194
same,glycan array binding signal (z-score),[10],1.24
same,glycan array binding signal (z-score),[11],1.3
same,glycan array binding signal (z-score),[12],-0.067
same,glycan array binding signal (z-score),[13],0.712
same,glycan array binding signal (z-score),[14],-0.065
same,glycan array binding signal (z-score),[15],-0.199
same,glycan array binding signal (z-score),[16],-0.378
same,glycan array binding signal (z-score),[17],-0.276
same,glycan array binding signal (z-score),[18],-0.34
same,glycan array binding signal (z-score),[19],-0.151
same,glycan array binding signal (z-score),[20],-0.3
same,glycan array binding signal (z-score),[21],-0.267
same,glycan array binding signal (z-score),[22],-0.353
same,glycan array binding signal (z-score),[23],-0.186
same,glycan array binding signal (z-score),[24],0.163
same,glycan array binding signal (z-score),[25],-0.332
same,glycan array binding signal (z-score),Gal(b1-4)GlcNAc6P,-0.119
same,glycan array binding signal (z-score),Gal(b1-6)Gal,-0.254
same,glycan array binding signal (z-score),Gal3S(b1-3)GalNAc,-0.314
same,glycan array binding signal (z-score),Gal3S(b1-3)GlcNAc,-0.367
same,glycan array binding signal (z-score),[26],-0.345
same,glycan array binding signal (z-score),Gal3S(b1-4)Glc,-0.042
same,glycan array binding signal (z-score),Gal3S(b1-4)Glc6S,-0.118
same,glycan array binding signal (z-score),Gal3S(b1-4)GlcNAc,-0.291
same,glycan array binding signal (z-score),[27],-0.292
same,glycan array binding signal (z-score),[28],-0.188
same,glycan array binding signal (z-score),[29],-0.231
same,glycan array binding signal (z-score),Gal3S4S(b1-4)GlcNAc,-0.153
same,glycan array binding signal (z-score),Gal3S6S(b1-4)GlcNAc,-0.273
same,glycan array binding signal (z-score),Gal3S6S(b1-4)GlcNAc6S,0.037
same,glycan array binding signal (z-score),Gal4S(b1-4)GlcNAc,-0.435
same,glycan array binding signal (z-score),Gal4S6S(b1-4)GlcNAc,-0.401
same,glycan array binding signal (z-score),Gal6P(b1-4)GlcNAc,-0.305
same,glycan array binding signal (z-score),Gal6S(b1-3)GlcNAc,-0.271
same,glycan array binding signal (z-score),Gal6S(b1-3)GlcNAc6S,-0.209
same,glycan array binding signal (z-score),Gal6S(b1-4)Glc,-0.274

# — the supplement of paper PMC8728848
